Target: the molecule itself
Assay: SEC

B1: MSP domain and coiled‐coil of VAP‐B [[…]], wild type, C‐terminal 6His (domain or fragment)
chain: not shown
stoichiometry N: 2

Reference: publication PMC6030701 (EMBO Reports, 2018)
